These are yes or no findings as the source states them, for the method shown. Some entries that bind do so weakly or less than the wild type. For some assays here: Sequences can lack the tags named with a protein.
T1: recombinant full-length Fbln7 (Fbln7-FL) (mouse) (UniProt Q501P1)
T1 sequence: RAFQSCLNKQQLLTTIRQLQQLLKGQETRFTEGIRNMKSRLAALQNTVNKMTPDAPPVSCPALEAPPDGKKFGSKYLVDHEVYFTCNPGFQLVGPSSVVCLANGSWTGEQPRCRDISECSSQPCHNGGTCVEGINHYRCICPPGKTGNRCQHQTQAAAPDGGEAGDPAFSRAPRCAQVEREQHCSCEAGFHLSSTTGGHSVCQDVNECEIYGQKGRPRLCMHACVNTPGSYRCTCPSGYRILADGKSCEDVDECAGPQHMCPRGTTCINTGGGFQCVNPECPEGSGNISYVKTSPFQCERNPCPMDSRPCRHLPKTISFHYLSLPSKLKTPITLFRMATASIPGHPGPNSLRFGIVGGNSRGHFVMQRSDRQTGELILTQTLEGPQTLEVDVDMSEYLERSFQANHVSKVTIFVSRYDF

By UniProt entry, the sequences of proteins in these tests, tags left out. Where a name states a change or a piece, a line headed by the entry shows the natural chain unless it says otherwise. Residues count along the entry.
UniProt P35918, residues 20-762: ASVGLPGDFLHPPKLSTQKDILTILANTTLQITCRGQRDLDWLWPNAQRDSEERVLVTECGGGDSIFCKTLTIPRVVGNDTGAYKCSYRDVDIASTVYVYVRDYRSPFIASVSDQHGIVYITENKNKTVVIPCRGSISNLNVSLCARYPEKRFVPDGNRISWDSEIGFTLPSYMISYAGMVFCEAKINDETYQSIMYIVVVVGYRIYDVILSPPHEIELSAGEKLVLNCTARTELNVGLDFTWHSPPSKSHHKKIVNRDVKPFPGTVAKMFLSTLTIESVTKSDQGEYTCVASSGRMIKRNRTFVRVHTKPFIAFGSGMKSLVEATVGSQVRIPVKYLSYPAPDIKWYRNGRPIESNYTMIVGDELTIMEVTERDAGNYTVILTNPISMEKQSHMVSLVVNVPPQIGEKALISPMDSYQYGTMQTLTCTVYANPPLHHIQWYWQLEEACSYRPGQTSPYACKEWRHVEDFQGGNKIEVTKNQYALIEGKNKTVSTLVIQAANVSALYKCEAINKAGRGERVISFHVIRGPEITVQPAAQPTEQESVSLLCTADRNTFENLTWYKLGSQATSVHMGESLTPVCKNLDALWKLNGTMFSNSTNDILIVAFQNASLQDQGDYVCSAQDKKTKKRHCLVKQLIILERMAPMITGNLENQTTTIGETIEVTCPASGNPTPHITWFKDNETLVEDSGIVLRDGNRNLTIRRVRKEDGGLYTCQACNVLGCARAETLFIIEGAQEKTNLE

T2: recombinant C-terminal Fbln7 fragment (Fbln7-C) (mouse) (UniProt Q501P1)
T2 sequence: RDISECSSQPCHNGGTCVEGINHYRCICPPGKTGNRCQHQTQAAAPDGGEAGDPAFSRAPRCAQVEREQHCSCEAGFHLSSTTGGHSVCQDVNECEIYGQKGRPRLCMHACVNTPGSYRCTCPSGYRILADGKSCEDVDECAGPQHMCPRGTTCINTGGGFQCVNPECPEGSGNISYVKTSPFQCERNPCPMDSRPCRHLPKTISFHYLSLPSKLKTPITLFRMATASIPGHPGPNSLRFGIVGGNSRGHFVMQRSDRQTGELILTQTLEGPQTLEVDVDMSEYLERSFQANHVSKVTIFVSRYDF


What was measured:
[1] = target: T1, recombinant full-length Fbln7 (Fbln7-FL) (mouse); experiment: ELISA; solid phase binding assay; 96-well dish coated with protein (1 μg/well) overnight at 4 °C; second protein in PBS (VEGF 500 pg/well, VEGFR1 and VEGFR2 10 ng/well) added for 3 hours; second protein detected by primary antibody and HRP-conjugated secondary antibody; both purified
[2] = target: T2, recombinant C-terminal Fbln7 fragment (Fbln7-C) (mouse); experiment: as above
[3] = target: recombinant VEGFR2/Flk-1 Fc Chimera (UniProt P35918); experiment: pull-down; VEGFR2 fused with IgG held on Dynabeads Protein G; Fbln7-C or VEGF added in incubation buffer (PBS and proteinase inhibitor) overnight at 4 °C; western blot; both purified

binding [1] | binding [2] | binding [3] | Molecule
binds | binds |  | recombinant VEGFR2/Flk-1 Fc Chimera (from UniProt P35918 20-762) (Fc fusion)
no binding (tested: 10 ng/well) | no binding (tested: 10 ng/well) |  | recombinant VEGFR1 Fc Chimera (Fc fusion, UniProt P35969 23-759) YGSGSKLKVPELSLKGTQHVMQAGQTLFLKCRGEAAHSWSLPTTVSQEDKRLSITPPSACGRDNRQFCSTLTLDTAQANHTGLYTCRYLPTSTSKKKKAESSIYIFVSDAGSPFIEMHTDIPKLVHMTEGRQLIIPCRVTSPNVTVTLKKFPFDTLTPDGQRITWDSRRGFIIANATYKEIGLLNCEATVNGHLYQTNYLTHRQTNTILDVQIRPPSPVRLLHGQTLVLNCTATTELNTRVQMSWNYPGKATKRASIRQRIDRSHSHNNVFHSVLKINNVESRDKGLYTCRVKSGSSFQSFNTSVHVYEKGFISVKHRKQPVQETTAGRRSYRLSMKVKAFPSPEIVWLKDGSPATLKSARYLVHGYSLIIKDVTTEDAGDYTILLGIKQSRLFKNLTATLIVNVKPQIYEKSVSSLPSPPLYPLGSRQVLTCTVYGIPRPTITWLWHPCHHNHSKERYDFCTENEESFILDPSSNLGNRIESISQRMTVIEGTNKTVSTLVVADSQTPGIYSCRAFNKIGTVERNIKFYVTDVPNGFHVSLEKMPAEGEDLKLSCVVNKFLYRDITWILLRTVNNRTMHHSISKQKMATTQDYSITLNLVIKNVSLEDSGTYACRARNIYTGEDILRKTEVLVRDSEAPHLLQNLSDYEVSISGSTTLDCQARGVPAPQITWFKNNHKIQQEPGIILGPGNSTLFIERVTEEDEGVYRCRATNQKGAVESAAYLTVQGTSDKSNLE
 |  | binds | recombinant C-terminal Fbln7 fragment (Fbln7-C) (domain or fragment, UniProt Q501P1 135-440) RDISECSSQPCHNGGTCVEGINHYRCICPPGKTGNRCQHQTQAAAPDGGEAGDPAFSRAPRCAQVEREQHCSCEAGFHLSSTTGGHSVCQDVNECEIYGQKGRPRLCMHACVNTPGSYRCTCPSGYRILADGKSCEDVDECAGPQHMCPRGTTCINTGGGFQCVNPECPEGSGNISYVKTSPFQCERNPCPMDSRPCRHLPKTISFHYLSLPSKLKTPITLFRMATASIPGHPGPNSLRFGIVGGNSRGHFVMQRSDRQTGELILTQTLEGPQTLEVDVDMSEYLERSFQANHVSKVTIFVSRYDF

Reference: paper PMC6281620
